This is an account of results in a collection of fitness landscapes (doi:10.1016/j.celrep.2020.107928).

To fix the notation:
B1: Caulobacter ParB omega fusion; a variant is named by its letters at X, in order, B8GW30 (parent)
chain: MESVVVGEPGMSEGRRGLGRGLSALLGEVDAAPAQAPGEQLGGSREAPIEILQRNPDQPRRTFREEDLEDLSNSIREKGVLQPILVRPSPDTAGEYQIVAGERAWRAAQRAGLKTVPIMVRELDDLAVLEIGIIENVQRADLNVLEEALSYKVLMEKFERTQENIAQTIGKSXSHVANXMRLLXLPDEVQSYLVSGELTAXHARAIAAAADPVALAKQIIEGGLSVRETEALARKAPNLSAGKSKGGRPPRVKDTDTQALESDLSSVLGLDVSIDHRGSTGTLTITYATLEQLDDLCNRLTRGI

In all, about 81,000 sequences were measured (“one-hybrid fitness for binding parS DNA”: median about -0.17, highest 2% from about 0.51 on). The list shows a part of the results.

This assay covers variants of B1. The experiment in a line: one-hybrid fitness for binding parS DNA (scaled: cognate 1, non-cognate 0); higher = stronger binding. The note with it: with parS DNA site. In a few lines:
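Bacterial one-hybrid selection in E. coli USO rpoZ- hisB- pyrF- with a HIS3 reporter carrying the site 19 bp from the promoter, screening Caulobacter ParB libraries with four specificity codons randomised (NNS). Cells grew 48 hours at 37°C on M9-minus-histidine plus 0.1 mM IPTG and 5 mM 3-AT. Plasmids before and after selection were Illumina-sequenced, three replicate libraries pooled, and variants under 10 reads dropped. Fitness is the log change in variant-to-wild-type read ratio, rescaled to cognate 1, non-cognate 0.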
For the variant CYNR, the “one-hybrid fitness for binding parS DNA” value is at most 0.2.
The value for CTYG was at most 0.2; that for TAAW was at most 0.2; that for QVAR was at most 0.2.
To SQNF belongs at most 0.2; to YQHH, at most 0.2.
In the case of KAFG, the “one-hybrid fitness for binding parS DNA” value is at most 0.2.
To RWYW belongs at most 0.2; to HSTA, at most 0.2; to PNEY, at most 0.2.
To NGMG belongs at most 0.2.
As to GAQD, the “one-hybrid fitness for binding parS DNA” value is at most 0.2.
For ALDL, the “one-hybrid fitness for binding parS DNA” value is at most 0.2.
Turning to DFLA, the “one-hybrid fitness for binding parS DNA” value was at most 0.2.
To HMKV belongs at most 0.2; to MVSS, at most 0.2.
To NVRK belongs at most 0.2; to NLPC, at most 0.2.
Turning to MEAR, the “one-hybrid fitness for binding parS DNA” value is at most 0.2.
Turning to TKRY, the “one-hybrid fitness for binding parS DNA” value is at most 0.2.
In the case of VFPW, the “one-hybrid fitness for binding parS DNA” value was at most 0.2.
The value for PTVE was at most 0.2; that for QFKF was at most 0.2.
To AVHN belongs at most 0.2; to NRYS, at most 0.2.
The value for HDEP was at most 0.2; that for QCVR was at most 0.2; that for YRMT was at most 0.2.
Take WTNC: the “one-hybrid fitness for binding parS DNA” value was at most 0.2.
To MMTQ belongs at most 0.2; to HVHT, at most 0.2.
The value for RAQK was at most 0.2; that for REGK was at most 0.2.
Consider MDCT, for which the “one-hybrid fitness for binding parS DNA” value is at most 0.2.
Turning to PRIA, the “one-hybrid fitness for binding parS DNA” value was at most 0.2.
Regarding VPIR, the “one-hybrid fitness for binding parS DNA” value was at most 0.2.
On to NMNG, for which the “one-hybrid fitness for binding parS DNA” value is at most 0.2.
Turning to SEMG, the “one-hybrid fitness for binding parS DNA” value was at most 0.2.
To LADV belongs at most 0.2; to AFRV, at most 0.2; to TIRG, at most 0.2.
Consider SQKF, for which the “one-hybrid fitness for binding parS DNA” value is at most 0.2.
As to PQIK, the “one-hybrid fitness for binding parS DNA” value was at most 0.2.
Turning to DMHV, the “one-hybrid fitness for binding parS DNA” value was at most 0.2.
On to HFAT, for which the “one-hybrid fitness for binding parS DNA” value was at most 0.2.
Take YAPG: the “one-hybrid fitness for binding parS DNA” value is at most 0.2.
For AVPV, the “one-hybrid fitness for binding parS DNA” value was at most 0.2.
The value for ETIY was at most 0.2; that for SESH was at most 0.2; that for CMLG was at most 0.2.
The value for QFCG was at most 0.2; that for SGSI was at most 0.2.
As for YADG, the “one-hybrid fitness for binding parS DNA” value is at most 0.2.
For AQTD, the “one-hybrid fitness for binding parS DNA” value was at most 0.2.
For the variant LNPE, the “one-hybrid fitness for binding parS DNA” value is at most 0.2.
With ACDS, the “one-hybrid fitness for binding parS DNA” value is at most 0.2.
The value for TKRD was at most 0.2.
As to HKMS, the “one-hybrid fitness for binding parS DNA” value is at most 0.2.
The value for QWLM was at most 0.2; that for NNRL was at most 0.2.
Turning to RSKQ, the “one-hybrid fitness for binding parS DNA” value was at most 0.2.
The value for QRNT was at most 0.2.
The value for TDEG was at most 0.2; that for TALI was at most 0.2.
Take MAKS: the “one-hybrid fitness for binding parS DNA” value was at most 0.2.
The value for PQAY was at most 0.2.
To LVKL belongs at most 0.2; to VTQD, at most 0.2; to VTHS, at most 0.2.
To CRKS belongs at most 0.2.
In the case of DATD, the “one-hybrid fitness for binding parS DNA” value was at most 0.2.
For LGNY, the “one-hybrid fitness for binding parS DNA” value was at most 0.2.
The value for DWKS was at most 0.2; that for KRQV was at most 0.2.
The value for CMFG was at most 0.2.
With GPPP, the “one-hybrid fitness for binding parS DNA” value is at most 0.2.
For NTRS, the “one-hybrid fitness for binding parS DNA” value is at most 0.2.
The value for DSTI was at most 0.2; that for YAME was at most 0.2; that for HGWD was at most 0.2.
As for DCKY, the “one-hybrid fitness for binding parS DNA” value is at most 0.2.
Consider TVFY, for which the “one-hybrid fitness for binding parS DNA” value is at most 0.2.
To MKYY belongs at most 0.2.
With STSY, the “one-hybrid fitness for binding parS DNA” value was at most 0.2.
Regarding MRQR, the “one-hybrid fitness for binding parS DNA” value is at most 0.2.
The value for RYEQ was at most 0.2; that for FQPL was at most 0.2.
The value for NWSG was at most 0.2.
To GDPD belongs at most 0.2.
On to GTPV, for which the “one-hybrid fitness for binding parS DNA” value is at most 0.2.
Regarding AWGG, the “one-hybrid fitness for binding parS DNA” value was at most 0.2.
As for HQNV, the “one-hybrid fitness for binding parS DNA” value was at most 0.2.
With MPPA, the “one-hybrid fitness for binding parS DNA” value was at most 0.2.
TTHW: the “one-hybrid fitness for binding parS DNA” value is at most 0.2.
Take PPFS: the “one-hybrid fitness for binding parS DNA” value was at most 0.2.
Turning to RPAQ, the “one-hybrid fitness for binding parS DNA” value was at most 0.2.
Take SYPS: the “one-hybrid fitness for binding parS DNA” value was at most 0.2.
In the case of FTVG, the “one-hybrid fitness for binding parS DNA” value is at most 0.2.
LHPT: the “one-hybrid fitness for binding parS DNA” value is at most 0.2.
Turning to MSDQ, the “one-hybrid fitness for binding parS DNA” value was at most 0.2.
On to GNER, for which the “one-hybrid fitness for binding parS DNA” value was at most 0.2.
To FARR belongs at most 0.2; to GHTV, at most 0.2.
To GQVR belongs at most 0.2; to WHCG, at most 0.2.
Consider YPPT, for which the “one-hybrid fitness for binding parS DNA” value was at most 0.2.
As to AVCV, the “one-hybrid fitness for binding parS DNA” value is at most 0.2.
The value for HVET was at most 0.2; that for ANWG was at most 0.2; that for IPSY was at most 0.2.
Take QYHG: the “one-hybrid fitness for binding parS DNA” value is at most 0.2.
To LAPE belongs at most 0.2.
To REGR belongs at most 0.2; to GCSE, at most 0.2; to TLIK, at most 0.2.
To LKDC belongs at most 0.2; to DIDS, at most 0.2; to LNSR, at most 0.2.
WTGT: the “one-hybrid fitness for binding parS DNA” value was at most 0.2.
For RVNY, the “one-hybrid fitness for binding parS DNA” value is 0.485.
Turning to CHLY, the “one-hybrid fitness for binding parS DNA” value is at most 0.2.
To AILK belongs at most 0.2; to CMSI, at most 0.2; to FMYS, at most 0.2.
Take FGGA: the “one-hybrid fitness for binding parS DNA” value was at most 0.2.
Consider VLSC, for which the “one-hybrid fitness for binding parS DNA” value is at most 0.2.
Turning to PAHF, the “one-hybrid fitness for binding parS DNA” value was at most 0.2.
As for LFVI, the “one-hybrid fitness for binding parS DNA” value was at most 0.2.
With RESH, the “one-hybrid fitness for binding parS DNA” value is at most 0.2.
For the variant ATEI, the “one-hybrid fitness for binding parS DNA” value is at most 0.2.
Turning to QQYR, the “one-hybrid fitness for binding parS DNA” value is at most 0.2.
To VYGC belongs at most 0.2.
Turning to SILR, the “one-hybrid fitness for binding parS DNA” value was at most 0.2.
To THYY belongs at most 0.2; to RFCM, 0.271.
As to VKQR, the “one-hybrid fitness for binding parS DNA” value was at most 0.2.
The value for LYRC was at most 0.2; that for RQDP was at most 0.2.
For SPWG, the “one-hybrid fitness for binding parS DNA” value is at most 0.2.
Consider ARNV, for which the “one-hybrid fitness for binding parS DNA” value was at most 0.2.
Take DLVM: the “one-hybrid fitness for binding parS DNA” value is at most 0.2.
To QCSM belongs at most 0.2.
For SVLV, the “one-hybrid fitness for binding parS DNA” value is at most 0.2.
In the case of TSVF, the “one-hybrid fitness for binding parS DNA” value is at most 0.2.
For the variant KTRK, the “one-hybrid fitness for binding parS DNA” value is at most 0.2.
As to AATC, the “one-hybrid fitness for binding parS DNA” value is at most 0.2.
The value for TVVD was at most 0.2; that for ATWE was at most 0.2; that for TTTK was at most 0.2.
The value for QLPT was at most 0.2; that for RNKT was 0.819.
To TTLS belongs at most 0.2; to NDID, at most 0.2; to STVC, at most 0.2.
As for IIDE, the “one-hybrid fitness for binding parS DNA” value was at most 0.2.
To NSKR belongs at most 0.2; to RCVW, 0.225.
On to YSDN, for which the “one-hybrid fitness for binding parS DNA” value is at most 0.2.
To YSRD belongs at most 0.2; to GAKP, at most 0.2.
To PVSI belongs at most 0.2.
On to RKDP, for which the “one-hybrid fitness for binding parS DNA” value was at most 0.2.
To VDAM belongs at most 0.2; to TDTK, at most 0.2; to NTRC, at most 0.2.
IWCG: the “one-hybrid fitness for binding parS DNA” value was at most 0.2.
To RLQY belongs 0.495.
To RINE belongs at most 0.2; to DAVC, at most 0.2.
To VDWP belongs at most 0.2; to RKYH, at most 0.2.
Take VTSG: the “one-hybrid fitness for binding parS DNA” value was at most 0.2.
LCIS: the “one-hybrid fitness for binding parS DNA” value was at most 0.2.
As for RYFK, the “one-hybrid fitness for binding parS DNA” value was at most 0.2.
Regarding WEKT, the “one-hybrid fitness for binding parS DNA” value was at most 0.2.
To GRDW belongs at most 0.2; to GLGR, at most 0.2; to ALHP, at most 0.2.
As for RPTQ, the “one-hybrid fitness for binding parS DNA” value was at most 0.2.
To PRIG belongs at most 0.2.
Take SPDR: the “one-hybrid fitness for binding parS DNA” value is at most 0.2.
To YNNF belongs at most 0.2.
RPIE: the “one-hybrid fitness for binding parS DNA” value is at most 0.2.
To YRKW belongs at most 0.2; to HNGV, at most 0.2; to LRKF, at most 0.2.
SKMD: the “one-hybrid fitness for binding parS DNA” value was at most 0.2.
The value for PNYP was at most 0.2.
To HINT belongs at most 0.2; to SNMV, at most 0.2.
As to YRQH, the “one-hybrid fitness for binding parS DNA” value was at most 0.2.
To TVYA belongs at most 0.2; to CDCF, at most 0.2.
The value for ILMC was at most 0.2.
In the case of EVIT, the “one-hybrid fitness for binding parS DNA” value is at most 0.2.
